# Experimental data from the supplement of paper PMC4166925.
# ± gives the standard deviation of the averaged measurements. The full ranking holds about 33,000 sequences; the median of “E-score (dimensionless, -0.5 to 0.5)” is about -0.049, and the highest 2% start at about 0.37. The list shows a part of the results.
# Tested on: T1, PmTbr T-box DNA-binding domain (GST fusion)
# T1 sequence: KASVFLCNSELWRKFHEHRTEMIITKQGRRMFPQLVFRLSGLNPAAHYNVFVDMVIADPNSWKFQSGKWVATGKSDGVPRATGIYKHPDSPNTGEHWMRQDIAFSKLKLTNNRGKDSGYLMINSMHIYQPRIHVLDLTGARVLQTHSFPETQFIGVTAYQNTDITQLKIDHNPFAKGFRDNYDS
# Experiment: PBM E-score of 8-mer (E-score (dimensionless, -0.5 to 0.5)); Tbr is Tbrain of the sea star Patiria miniata (Pm) or the sea urchin Strongylocentrotus purpuratus (Sp); higher = stronger binding preference; most listed sequences are background and not binding sites
# Conditions: the construct has about 5 more residues each side
# Summary of the method: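 Expression of GST-fused Tbr T-box DNA-binding domains, each holding the full T-box plus roughly five flanking residues, was carried out in BL21 E. coli at 20 °C, with purification by glutathione affinity chromatography. Universal Agilent arrays made double-stranded by primer extension were incubated with the protein at 200 nM in PBS (pH 7.5), then scanned and quantified. All ungapped 8-mers were scored from probe intensities, and each received an enrichment E-score from the Universal PBM Analysis Suite, averaged over duplicate arrays.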
row,Sequence,PBM E-score of 8-mer
1,CATAGCCA,-0.0119 ± 0.045
2,AGTCGCTA,0.306 ± 0.031
3,CTAGGCCC,-0.274 ± 0.082
4,CAAGTCCC,0.0953 ± 0.0036
5,GTGGGACA,0.114 ± 0.029
6,ATGTCCAC,-0.161 ± 0.035
7,ATCCTATA,-0.114 ± 0.056
8,GACCGTAC,-0.213 ± 0.057
9,CACTGAAA,-0.0107 ± 0.025
10,CGATAATC,0.151 ± 0.037
11,ACGTCACC,0.295 ± 0.053
12,ACACCAGG,0.275 ± 0.018
13,AAATCAAC,0.0774 ± 0.0044
14,CTCGCTCC,0.117 ± 0.023
15,AATACGCA,0.114 ± 0.049
16,ACGCGGGC,-0.163 ± 0.075
17,AGGTATTC,0.0762 ± 0.05
18,GTCGCCTA,0.105 ± 0.057
19,AGCGAGCA,0.0802 ± 0.054
20,CCACGGAC,-0.0809 ± 0.028
21,CGAGCCAA,-0.171 ± 0.074
22,CTTACCCC,-0.0653 ± 0.067
23,ACTTGTTG,0.332 ± 0.018
24,CTCAGAAA,-0.15 ± 0.013
25,AAGAGACG,-0.275 ± 0.021

row,Sequence,PBM E-score of 8-mer
1,AGTACGCA,-0.0551 ± 0.032
2,CGGCTCTA,0.0438 ± 0.0021
3,ATGTACCG,-0.047 ± 0.051
4,AAGGAGTG,0.206 ± 0.011
5,ACCAATAT,0.125 ± 0.053
6,CAGACTAA,-0.081 ± 0.021
7,ACCTCGCA,0.293 ± 0.0053
8,AACAGCAA,0.0396 ± 0.025
9,CGCCAAGC,0.0166 ± 0.082
10,ACACACGC,0.0894 ± 0.043
11,AACCGTGA,0.234 ± 0.075
12,GAGACCTC,-0.252 ± 0.019
13,CACGGTGA,0.2 ± 0.021
14,CTCGGCGC,0.0429 ± 0.085
15,ACGCAATG,-0.0322 ± 0.018
16,CGGCCATA,-0.12 ± 0.0028
17,CGCCATAG,0.00713 ± 0.06
18,ATAGCACC,0.416 ± 0.012
19,CAGCATAG,-0.0612 ± 0.039
20,CAGAGTCG,0.164 ± 0.014
21,AGGTCTTA,-0.196 ± 0.013
22,ATGTAAAG,-0.293 ± 0.035
23,CGTCGGCC,-0.0457 ± 0.072
24,ATGACAAG,0.114 ± 0.0079
25,GACTTGGC,0.122 ± 0.04

row,Sequence,PBM E-score of 8-mer
1,GAGCCTTA,-0.224 ± 0.089
2,GTACGTAC,-0.0199 ± 0.077
3,GCAAAACA,0.127 ± 0.036
4,GTCATTCA,0.04 ± 0.065
5,AATACTAT,-0.101 ± 0.059
6,CCCTCGAC,0.106 ± 0.065
7,CGCGGGGA,-0.0567 ± 0.048
8,ACCCGTAA,-0.0431 ± 0.0047
9,AAGATATA,-0.0189 ± 0.016
10,ATCTATCA,-0.0454 ± 0.036
11,CTGCAACA,0.00995 ± 0.017
12,CCTGTGTA,-0.0943 ± 0.069
13,CAGGAGAG,-0.248 ± 0.023
14,AGGGTGTC,0.435 ± 0.014
15,CCAAGAGG,0.157 ± 0.072
16,AGAGCAAA,-0.099 ± 0.029
17,AGAGATAC,-0.242 ± 0.021
18,ATAGAATA,-0.17 ± 0.035
19,AAGGAGGC,-0.181 ± 0.009
20,CAAGACCA,-0.216 ± 0.0056
21,CCCCCTCG,-0.205 ± 0.016
22,GTCTGCTA,0.0147 ± 0.0016
23,ATTATGGG,-0.187 ± 0.059
24,ACTTCTGC,0.00198 ± 0.037
25,CATGACGC,0.0355 ± 0.06

row,Sequence,PBM E-score of 8-mer
1,CCGAATTC,-0.16 ± 0.067
2,GGTAATTA,-0.105 ± 0.006
3,GACATGAC,0.0395 ± 0.04
4,CGACGGCA,-0.0228 ± 0.043
5,AAGCTCTA,-0.31 ± 0.066
6,ATCACGGG,0.0677 ± 0.015
7,GGAAGTAA,-0.0591 ± 0.1
8,CGCTGGAA,0.00137 ± 0.015
9,CATTCCCC,-0.067 ± 0.011
10,ACCATGTC,0.0732 ± 0.021
11,CGGTTTTA,-0.0112 ± 0.055
12,GCGTGACA,0.365 ± 0.0062
13,CTGCTATA,-0.0317 ± 0.008
14,CCTAAGCA,-0.0705 ± 0.079
15,GAAATGCA,-0.0545 ± 0.12
16,GCGCTGCC,0.128 ± 0.037
17,CAATCGAG,0.06803 ± 0.0002
18,CAAAAGGG,-0.119 ± 0.04
19,TCTGCTCA,0.00641 ± 0.038
20,GAAAAGAC,-0.0377 ± 0.11
21,CGCCTTAC,0.242 ± 0.019
22,GACAAATC,0.179 ± 0.0078
23,CTAAGACA,-0.0384 ± 0.05
24,GAAAAAAA,0.132 ± 0.022
25,CCGGTTTC,0.0411 ± 0.019

row,Sequence,PBM E-score of 8-mer
1,AGGCCCTG,-0.132 ± 0.012
2,CGCGCTGA,0.14 ± 0.024
3,AGCAGTCC,-0.233 ± 0.06
4,GACATTCA,0.073 ± 0.0067
5,GTACACGA,-0.251 ± 0.085
6,CCGTATGA,-0.119 ± 0.047
7,TTACTGAA,-0.167 ± 0.0054
8,ATAGATAC,-0.259 ± 0.032
9,GTCATAAC,0.0358 ± 0.0092
10,CCGGTTTA,-0.244 ± 0.026
11,AGGCCAGA,-0.128 ± 0.011
12,CCACCGGG,-0.0851 ± 0.12
13,CATTTAAA,-0.203 ± 0.13
14,GAATCATA,0.0757 ± 0.097
15,AAAAGTGC,0.2475 ± 0.00082
16,CATCACTA,0.0705 ± 0.011
17,CGGTGACA,0.333 ± 0.0054
18,AACATGTG,0.267 ± 0.019
19,CATAGCAC,0.306 ± 0.029
20,CCCCGACG,-0.0732 ± 0.002
21,CTAAACAG,0.0676 ± 0.071
22,AACCCGCG,0.216 ± 0.0078
23,CTAAAGAG,-0.15 ± 0.016
24,CTAGACGC,-0.0184 ± 0.035
25,CGTTACCA,0.0912 ± 0.01

row,Sequence,PBM E-score of 8-mer
1,ATTACTTA,-0.162 ± 0.1
2,CTTATTTC,0.0468 ± 0.1
3,CCGTACCA,-0.113 ± 0.064
4,GGCAGGAC,-0.155 ± 0.13
5,GAACGACA,0.106 ± 0.025
6,GCCTCCCA,-0.113 ± 0.083
7,CACTGTAC,0.0171 ± 0.019
8,CATAATGC,0.000495 ± 0.0089
9,ACGTTGCT,-0.0651 ± 0.07
10,AGTTTTTG,-0.0234 ± 0.019
11,GATTTACA,0.117 ± 0.013
12,GCACCGAC,-0.0215 ± 0.1
13,CACTACGA,-0.012 ± 0.048
14,GAAGCTGA,-0.114 ± 0.02
15,GGATTAGA,-0.28 ± 0.034
16,AGATAACG,0.0484 ± 0.029
17,TCGATTCA,0.0262 ± 0.015
18,CCTCATCA,-0.196 ± 0.03
19,ATCTCTCG,0.0243 ± 0.012
20,GTTACAGA,-0.0832 ± 0.06
21,ATACGAAT,-0.154 ± 0.018
22,CCCACGCC,0.08239 ± 0.00072
23,ACCGTTAC,-0.0115 ± 0.055
24,GGGAATTA,-0.211 ± 0.028
25,GACGCCTC,0.328 ± 0.029

row,Sequence,PBM E-score of 8-mer
1,CACTCTAA,0.0461 ± 0.013
2,CATTATAG,-0.04 ± 0.11
3,GCAGTTAC,-0.0313 ± 0.059
4,GTAAAGAA,-0.0605 ± 0.053
5,CGAATGAC,0.165 ± 0.072
6,AAGAAGGC,-0.0685 ± 0.02
7,CGTAGCTC,-0.164 ± 0.08
8,CATTTAAG,-0.19 ± 0.025
9,CACCCATG,0.181 ± 0.0036
10,CACTACTA,-0.0507 ± 0.03
11,AAAGGCAA,-0.118 ± 0.042
12,ATTCGCAA,0.298 ± 0.027
13,GGGGTCTA,-0.201 ± 0.13
14,GTATCCCA,-0.354 ± 0.017
15,GCATAGCA,0.0153 ± 0.028
16,AGGTGCAC,0.122 ± 0.011
17,AAGTTTAT,-0.121 ± 0.051
18,GACCTTGC,-0.145 ± 0.021
19,ACAGAAAA,-0.0987 ± 0.11
20,AGATCATA,-0.219 ± 0.03
21,CCGCAAGA,-0.079 ± 0.13
22,AAACTCCT,-0.129 ± 0.03
23,AATATAGA,-0.012 ± 0.043
24,AGTGCGTG,0.158 ± 0.015
25,GCATCGCC,0.111 ± 0.0028

row,Sequence,PBM E-score of 8-mer
1,GACCGAAC,-0.115 ± 0.044
2,ATGAGACA,-0.058 ± 0.016
3,GGCAAAGA,-0.132 ± 0.031
4,GAGTGGCC,-0.0154 ± 0.11
5,AATGGTTC,-0.0989 ± 0.046
6,ACACGTCG,0.391 ± 0.018
7,AACCGAGT,-0.133 ± 0.06
8,CAAAGCTG,0.0554 ± 0.028
9,AAGGTTAT,0.00739 ± 0.011
10,CCTGCGTA,0.0089 ± 0.029
11,AACTGTTA,0.227 ± 0.056
12,CAATAAGC,-0.0416 ± 0.028
13,AGTAGTAC,-0.196 ± 0.024
14,GGCATACC,-0.0479 ± 0.039
15,ATATGAGC,-0.275 ± 0.02
16,TAACCCAA,-0.0826 ± 0.031
17,CGTCGAGC,0.0651 ± 0.0014
18,TCATGGCA,0.0795 ± 0.03
19,CCCAATTC,-0.225 ± 0.059
20,AGTAAGGA,-0.156 ± 0.046
21,GGCAGGGA,-0.112 ± 0.0014
22,ACGCGACC,-0.0369 ± 0.11
23,CAATCGCG,0.269 ± 0.026
24,GTGACTTA,-0.0258 ± 0.045
25,ACGCCTGA,0.206 ± 0.042

row,Sequence,PBM E-score of 8-mer
1,CATTTGGC,0.0793 ± 0.0055
2,AAGGTAAG,-0.315 ± 0.0057
3,TATGCGCA,-0.3154 ± 0.001
4,ATGACTTC,-0.0662 ± 0.037
5,GACGGCAA,-0.0141 ± 0.033
6,CGCAAGCC,-0.0832 ± 0.076
7,ACTTTCCT,0.191 ± 0.058
8,AAAAGTAC,-0.113 ± 0.074
9,GGTTAGTA,-0.188 ± 0.063
10,ACTAGTTC,0.0632 ± 0.069
11,ACCCCTTG,-0.00456 ± 0.057
12,ATGTTACA,0.0933 ± 0.047
13,CCAGATTA,-0.18 ± 0.0084
14,ATATACAG,-0.0624 ± 0.028
15,GCGAACGC,0.338 ± 0.042
16,CAGCTTGC,0.199 ± 0.032
17,CACTGTTC,0.0889 ± 0.003
18,TAAGTTCA,-0.108 ± 0.012
19,CTAGCAGC,0.0468 ± 0.033
